According to the supplement of paper PMC10600219:
Where a name gives a salt, the structure may show the parent alone. Over roughly 2,800 compounds, “cell viability relative to vehicle” has its median near 0.98; the lowest 2% begin near 0.45. The list shows a part of the results.

These compounds were tested on NCI-H2228 alectinib-DTP (assay: cell viability relative to vehicle (fraction of vehicle); NCI-H2228 is an ALK-positive lung cancer line and DTP means drug-tolerant persister; higher = less growth inhibition). Conditions: 100 nM; treatment time 6 days.
How it was run: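 Values give cell viability as a fraction of vehicle-treated cells. Parental and drug-tolerant persister NCI-H2228 cells (persisters made with 1000 nM of a targeted drug for 13 days) were exposed in 384-well plates to the 3114-agent TargetMol anti-cancer compound library at 100 nM, with DMSO as vehicle. ATP was then read after 6 days by the CellTiter-Glo 3D Cell Viability Assay.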

Structure (SMILES)	cell viability
COc1ccccc1N1CCN(CC(O)COc2cccc3ccccc23)CC1 (configuration not stated) [Naftopidil]	1.01
CN1CCC(=C2c3ccccc3CC(=O)c3sccc32)CC1 [Ketotifen fumarate]	1.17
Cn1c(=O)c2c(ncn2CC(=O)O)n(C)c1=O [Theophylline-7-acetic acid]	0.815
COc1cc(OCc2cccc(-c3ccccc3)c2C)cc(OC)c1CN1CCCC[C@H]1C(=O)O [PD-1/PD-L1 inhibitor 1]	0.952
CC1(C)CCC(CN2CCN(c3ccc(C(=O)NS(=O)(=O)c4ccc(NCC5CCOCC5)c([N+](=O)[O-])c4)c(Oc4cnc5[nH]ccc5c4)c3)CC2)=C(c2ccc(Cl)cc2)C1	1.1
NCC1CCC(C(=O)O)CC1 (configuration not stated) [Amstat]	1.02
CS(=O)(=O)c1cccc(CNc2nc(Nc3ccc4c(c3)CCC(=O)N4)ncc2C(F)(F)F)c1	0.78
Cc1ccc(NC(=O)c2ccc(CN3CC[C@H](N(C)C)C3)c(C(F)(F)F)c2)cc1Nc1nccc(-c2cncnc2)n1 [Bafetinib]	1.1
CC(C)(Oc1ccc(Cl)cc1)C(=O)O [Clofibric acid]	1.14
COc1cc(Nc2ncc(F)c(Nc3ccc4c(n3)NC(=O)C(C)(C)O4)n2)cc(OC)c1OC	0.814
COc1cc(Nc2ncc(F)c(Nc3ccc4c(n3)NC(=O)C(C)(C)O4)n2)cc(OC)c1OC [R406 free base]	0.649
CC(=O)NO [Acetohydroxamic acid]	0.749
N[C@@H](Cn1ccc(=O)c(O)c1)C(=O)O [L-Mimosine]	0.966
CC(=O)N[C@@H](CCC(N)=O)C(=O)O [Aceglutamide]	0.892
O=C(O)CCC(=O)Nc1ccc(Br)cn1 [Bikinin]	0.998
COc1ccc(C(=O)Nc2sc3c(c2C(N)=O)CCCC3)cc1OC	0.863
COc1cc2ncnc(Nc3ccc(Oc4ccccc4)cc3C)c2cc1OC	0.904
CCC[C@H](Nc1nc(-c2ccc(NC(=O)NCC)c(OC)c2)ncc1C)c1cccnc1 [Lexibulin]	0.611
Nc1ccc(Cl)cc1C(=O)O [2-Amino-5-chlorobenzoic acid]	1.03
COc1cc2ncc(-c3ccccc3)nc2cc1OC [Tyrphostin AG 1296]	0.903
O=c1cc(N2CCNCC2)oc2c(-c3ccccc3)cccc12	0.886
CCOc1ccc2c(-c3cccc(F)c3)nn(CC(=O)N(C)c3ccc4nc(C)oc4c3)c(=O)c2c1	0.927
COc1cc2c(c(OC)c1OC)-c1c(cc(OC)c(OC)c1OC)CC(C)C(C)C2 (configuration not stated) [Schizandrin A]	0.877
CC(C)=CC(=O)O[C@H]1Cc2cc3ccc(=O)oc3cc2OC1(C)C [Decursin]	1.05
Cc1ccc(-c2ncc(Cl)cc2-c2ccc(S(C)(=O)=O)cc2)cn1 [Etoricoxib]	0.866
O=C(O)c1cc(O)c2c(c1)[C@@H]([C@H]1c3cc(C(=O)O)cc(O)c3C(=O)c3c(O[C@@H]4O[C@H](CO)[C@@H](O)[C@H](O)[C@H]4O)cccc31)c1cccc(O[C@@H]3O[C@H](CO)[C@@H](O)[C@H](O)[C@H]3O)c1C2=O [Sennoside B]	0.981

Structure (SMILES)	cell viability
Cn1ncc(Cl)c1-c1cc(C(=O)N[C@H](CN)Cc2cccc(F)c2)sc1Cl [Afuresertib]	0.619
Clc1ccc(COC(Cn2ccnc2)c2ccc(Cl)cc2Cl)c(Cl)c1 (configuration not stated) [Miconazole]	1.04
COc1c(O[C@@H]2O[C@H](CO)[C@@H](O)[C@H](O)[C@H]2O)cc2occ(-c3ccc(O)cc3)c(=O)c2c1O [Tectoridin]	1.03
Cc1cc(=O)n(-c2ccccc2)n1C [Antipyrine]	1
C[C@H](NC(=O)CNC(=O)c1cccc(Cl)c1)c1ccccc1	0.957
C=CC(=O)N1CCC(Oc2cc3c(Nc4ccc(Cl)c(Cl)c4F)ncnc3cc2OC)CC1 [Poziotinib]	0.648
Cc1c(Cc2ccc3ccccc3n2)c2cc(F)ccc2n1CC(=O)O [Timapiprant]	0.927
CO[C@@H](C(=O)N1Cc2[nH]nc(NC(=O)c3ccc(N4CCN(C)CC4)cc3)c2C1)c1ccccc1 [Danusertib]	0.816
CCCCCCCCCCCCCCCC(=O)NCCO [Palmidrol]	1
CC(C)=CCC[C@](C)(O[C@@H]1O[C@H](CO)[C@@H](O)[C@H](O)[C@H]1O)[C@H]1CC[C@]2(C)[C@@H]1[C@H](O)C[C@@H]1[C@@]3(C)CC[C@H](O[C@@H]4O[C@H](CO)[C@@H](O)[C@H](O)[C@H]4O)C(C)(C)[C@@H]3CC[C@]12C [Ginsenoside F2]	0.933
O=C(Nc1cccc(-c2ccccc2)c1)OC1CCCCC1	1.01
CCOC(=O)C(C)(C)Oc1ccc(Cl)cc1 [Clofibrate]	1.08
O=c1cc(N2CCOCC2)oc2c1ccc1ccccc12	0.917
CN1CCN(c2ccc(-c3ccncc3-c3cc(F)c(O)c(F)c3)cc2)CC1	1.11
C[C@H](NC(=O)[C@@H](O)c1cc(F)cc(F)c1)C(=O)N[C@@H]1C(=O)N(C)c2ccccc2-c2ccccc21	0.773
C[C@]12CC[C@@H]3c4ccc(O)cc4CC[C@H]3[C@@H]1CC[C@@H]2OC(=O)CCC1CCCC1 [Depofemin]	1.1
CCCC(=O)O [Butyric  acid]	1.04
Cc1cc(Nc2ccc(NC(=O)c3ccc(Nc4ccnc5ccccc45)cc3)cc2)nc(N)n1	1.05
O=C(Cc1ccc(-c2ccc(OCCN3CCOCC3)cc2)cn1)NCc1ccccc1	0.733
Nc1ncn([C@H]2C[C@H](O)[C@@H](CO)O2)c(=O)n1 [Decitabine]	0.827
O=c1cc(-c2ccc(O)c(O)c2)oc2cc(O)cc(O)c12 [Luteolin]	1.13
CCOc1cc(C(=O)N2CCC(N3CCN(C)CC3)CC2)ccc1Nc1ncc2c(n1)N(C1CCCC1)c1ccccc1C(=O)N2C	1.02
O=C(NOCCO)c1ccc2cncn2c1Nc1ccc(I)cc1F	0.951
CC(=O)Nc1ccc(NC(=S)NC(=O)c2ccc(C(C)(C)C)cc2)cc1 [Tenovin-1]	0.946
O=C(Nc1ccc(Cl)cc1)C1CCCN(C(=O)c2cccc(-c3ccco3)c2)C1 (configuration not stated)	0.946
CCN[C@H]1C[C@H](C)S(=O)(=O)c2sc(S(N)(=O)=O)cc21 [Dorzolamide hydrochloride]	1.21
